Our source for the growth values is PubChem BioAssay (NCI).

In this experiment the test system is TK-10 renal. The experiment can be described thus: NCI-60 one-dose screen, 48 h (100 = growth as untreated, 0 = no growth, -100 = all killed).

SMILES strings stand for the structures. More than one record can exist for a structure, and the calls need not agree.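 Negative percent growth values reflect cell death: -40 means 40% of the cells present at the start died, and -100 means all died.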 Not every entry of the source has a single result; some have several. Only these are listed. How the source made its calls: active means growth percent below 10; inactive means the rest. The source may hold further records. These are repeated runs of one drug, at the concentration stated with the values; one value stands for one run. Counts like (3×) count equal records among those shown.

For the compound `COc1cccc2c1C(=O)c1c(O)c3c(c(O)c1C2=O)C[C@@](O)(C(=O)CO)C[C@@H]3OC1CC(N)C(O)C(C)O1` (stereo not given in full), the growth result (0.25 µM, runs of 2018) is “inactive: 55.1 (2×), 57.1, 50.3 (2×), 46, 52.2, 52.1, 48.6, 43, 50.5, 52, 45.7, 55.9, 55.6, 48.5, 58.1, 41.8, 74.7, 64.4, 66.1, 61.1, 61.3, 61.7 (3×), 61.9, 72.4, 67.8, 71.5, 60.6, 52.8, 76.4, 62.2, 59.3, 51.5, 59.7, 62.9 (2×), 60.2, 51.8, 58.4, 66.6, 64.2, 66.5 (2×), 66.8, 66.3, 70.6, 65.6, 76.3, 78.3, 72.2, 70.9, 47.6, 43.6, 63.7, 52.9, 48.3%”; the growth result (0.25 µM, runs of 2019) is “inactive: 67.6, 57.7, 57.2, 58, 66.8, 66.9, 67.3, 68.4, 69.5, 64.2, 54.9, 46.6, 55.1, 61.7, 58.7, 65.6, 56.9 (2×), 64.9, 60.3, 63, 59.1 (2×), 59.7, 56.8, 66.6, 80.9, 71.4, 75.2, 54.7, 54.6, 57, 53.9, 50.3, 54.8 (2×), 47.6, 47.4, 55.5, 58.3, 46.2, 43.1, 44.7, 33.8, 65.8, 56, 61.6, 49.3, 57.9, 61%”; the growth result (0.25 µM, runs of 2020) is “inactive: 57.3, 56.5, 69.7, 71.7, 70.3, 66.5, 59.7, 55.9, 63.3, 57, 59.9, 60.7, 56.1, 53.5, 64.2, 61.1, 73.3, 66, 70.2, 67.3, 65.1, 65.6, 67.7, 68.6, 66.2, 64.5%”; the growth entry (0.25 µM, runs of 2021) was “inactive: 63.1 (2×), 67, 64.8, 76, 77.3, 68.9, 70.3, 66.4, 66.2, 67.8, 75.3, 66, 56.8, 57.1, 59.1 (2×), 65.6 (2×), 65.5, 66.6, 66.9, 60.9, 56.7, 57.8, 57.6, 52.6, 59.7, 60.4, 62, 64.7, 58.8, 56.2, 56.9, 55.8, 48.8, 56.4, 59, 62.4, 70.5, 58.2, 57, 50.1, 57.5, 67.7, 55.2, 61.1, 72.1, 62.7, 60.6, 68.4, 64.9, 73.6%”; the growth result (0.25 µM, runs of 2022) is “active: 8.48%, 5.49% and inactive: 19.1, 74.5, 77, 70.6, 44.2, 70, 72.1, 88, 65.9, 79.3, 79.8, 72.7, 74.1, 67.2, 63.1, 59, 75.2, 89.4, 69.3, 84.2, 87.4, 68.1, 74.2, 69.1, 66.8, 61.1%”; the growth entry (25 µM, runs of 1991) was “inactive: 15.5, 16.6, 14.8, 15.4, 13.6, 36.8, 10.9, 20.6, 25.5% and active: -1.08, -17.4, -15.3, -13.2, 6.97, -26, -3.36%”. The growth result is “inactive: 25.2, 11.9, 12.8, 14.6, 22.4, 13.1, 15.8, 18, 10.1, 22.7, 15.6, 10.7, 29.2, 22.3, 19.3, 13, 16.6, 11.4, 12.1, 12.4, 11.2, 19.7, 15.3, 17.4, 18.5, 23.3, 15.9, 28.1, 12.2, 19.9% and active: 6.76, -6.8, 5.36, -5.89, 1.78, -12.5, -11.7 (2×), -2.48, -14.5, -8.73, -5.68, 7.91, -17.7, -9.33, -2.94, -15.9, -28.6, -10.4 (2×), -14.1, -10.9, -10.5, 4.78, 2.66, 2.43, -4.96, 1.51, -11.9, -2.71, 2.75, -8.94, -1.1, 5.62, -5.32, 4.38, 4.55, 5.13, 2.95, 0.235, -12.3, -9.74, 8.49, -12, -32.5, -2.93, 5.81, -4.49, 1.65, -8.51, -14.7, -0.556, 8.74, 1.33, -16.3, 0.924, -1.47, -6.31, -0.867, -10.8, -8.36, -4.28, 9.39, 7.39, 0.396, 5.08, -16.6, -7.59, -18.4, -0.703, -13.5, 5.79, -13, 8.26, -11, -12.6, -2.62, -18, 4.48, -26.3, -72, 0.598, 2.48, 3.39, -12.8, -3.08, -4.88, -13.6, 6.74, 5.47%” (25 µM, runs of 1992); “active: -2.75, -12.9, -19.2, -2.57, -8.21, 7.09, 4.07, 2.6, -19.7, 6.51, -35.6, -0.836, 7.57, 7.85, -0.369, -17.3, -2, -9.28, 7.88, -11.1, 6.02, -13.8, -0.489, -21.7, -6.23, 7.25, -40.5, 3.57, -37, -6.12, 6.12, -9.54, -10.5, 7.84, 10, -13.9, -19.3, 0.551, -16.9, -6.49, -31.6, -9.23% and inactive: 10.3, 13.3, 22.9, 10.2, 14.8, 13.1%” (25 µM, runs of 1993); “inactive: 28.6, 98.4, 10.3, 12, 29.3, 47.4, 22.4% and active: -31.2, -37.8, -8.1, -7.7, -37.1, -35.4, 7.5, -27.6, -26.8, 2.17, -21.3, 5.2, -5.98, -34.1, -4.63, -18.2, -18.9, -12.1, -0.188, -1.18, -11.7, 3.62, 6.04, 0.65, -12.6, 1.23%” (25 µM, runs of 1994); “active: -3.17, 6.97, 9.34, -14.1, 4.11, -5.82, -7.23, 4.34, -22.4 (2×), -1.57, 5.07, -18.7, -21.6, -14.9, 0.954, -31.8, -6.55, -18.9, -13 (2×), -4.84, -9.22, -2.64, 4.87, -34.9, -15.2, -19.9, 4.3, -4.86, -3.11, 0.119, -2.92, -5.54, -2.16, 1.7 (2×), -24.6, -5.6, -1.98, -8.64, -79.9% and inactive: 13.6, 22.2, 14.6, 37.9, 13.8, 11.9%” (25 µM, runs of 1995); “active: -6.44, -7.23, -22.6 (2×), 5.68, 3.75, 3.89, -40.4, -16.3, -34.4, -8.98, -21.3, -4.83, -14.6, -0.582, -2.22, -36.6, -49.7, -17.9, -50, -32.1, -10.2, 6.44, -43.5 (2×), 9.39, -2.97, -29.4, -38.6, -13.5 (2×), 6, -3.25, 6.7, -19.2, 7.66, -2.36, -32.5, 2.78, -28.1, -25, -20.4, 9.83, 1.27, 9.6, 7.88, -0.304, -5.46, 8.54, -48.5, -37.5, 0.576, 1.63, 7.85, 1.28, -2.35, -21.2, 7.58, -0.936, -5.19, -9.48, -18.4, 0.325, -7.54, -49.3, -24.6, -17.5, -9.69, -0.568, -10.3, -7.39, -3.51, -85.9, -23.1, -3.18, -7.71, -4.69, -27.8, -5.03, -11.6, 5.76, -0.235, -12.3, -13.6, -32.2, 6.54, -12.1, -2.96, -34.7, -7.28, -25.8, -24.8, -18.3% and inactive: 14, 100, 15.5, 11.8, 13.9, 27.2, 115, 10.4, 21.2, 11.1, 37.2, 10.1, 23, 21.4, 14.8, 19.9%” (25 µM, runs of 1996); “active: 9.23, -29.2, 1.74, -10.5, -12.5, 1.8, 4.65, -18.4, -19.3, 1.16, -4.14, -7.63, 5.27, -18.8, 5.86, -29.3, -25.9, -9.35, 1.79, -18.3, -5.52, -20.6, -18.6, 3.13, -17.2, 4.73, -16.4, -38.3, 4.1, -13.5, -23.6, -2.26, -3.94, 1.05, -8.24, 0.719, -7.12, -27.7, -39.1, -60.5, 1.96, -7.18, 9.04, -21.5, 6.71, 3.72% and inactive: 18, 10.9, 10.4, 13.4, 13, 13.7, 12.6, 66.7, 14.4, 99.8, 86.4%” (25 µM, runs of 1997). The growth result is “active: 6.84, -6.49, 3.28 (2×), 2.08, 2.14, -29.6, -27, -25 (2×), -4.35, -4.32, 6.57, -27.9, 1.03, -14.2, -2.26, 3.18, -21.9, -11.9, 7.17, 7.02, 0, -3.43, -15.9, 6.64, -1.61, -28.6, 0.772, -18.7, 5.99, -35.9, -13, -7.45, -36.7, -5.03, -4.27, -2.4, -16.3, 7.1, -8.88, -8.41, -2.18, -2.27, 7.22% and inactive: 12.5, 18.6, 11.6, 15.5, 10.2, 14, 14.7, 14.1, 59.8, 15.2, 16.7, 12, 34, 28.5, 29.4, 36.9, 30.2, 29, 24, 11.3, 28.4, 23.3, 21.1, 12.3, 19.2, 15, 13%” (25 µM, runs of 1998); “inactive: 13.2, 25.5, 18.7, 10.5, 40.2, 11.8% and active: -7.26, -2.36, 9.15, -8.11, 3.69, 1.59, -45.5, 2.51, -46, -12.2, -5.26, -12.5, 0.884, 2.55, -34.1, -37.5, -15.6, -68.3%” (25 µM, runs of 1999); “active: -75.6, -100, 2.11, -47.8%” (25 µM, runs of 2000).
